Reference: PMC4336329 (PLoS ONE, 2015)
The campaign covered roughly 310,000 compounds. About 14,000 (4.5%) showed an effect of 50% or more. The effect is printed as a negative number. Some of the results follow.

The molecules below were run against human ether-à-go-go-related gene (hERG) potassium channel (human, UniProt Q12809) (assay: primary screen, population patch clamp on CHO cells stably expressing hERG).
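Note: peak tail current of the secondary pulse compared with the same well before compound.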

Sequence of human ether-à-go-go-related gene (hERG) potassium channel (Q12809 whole entry, looked up): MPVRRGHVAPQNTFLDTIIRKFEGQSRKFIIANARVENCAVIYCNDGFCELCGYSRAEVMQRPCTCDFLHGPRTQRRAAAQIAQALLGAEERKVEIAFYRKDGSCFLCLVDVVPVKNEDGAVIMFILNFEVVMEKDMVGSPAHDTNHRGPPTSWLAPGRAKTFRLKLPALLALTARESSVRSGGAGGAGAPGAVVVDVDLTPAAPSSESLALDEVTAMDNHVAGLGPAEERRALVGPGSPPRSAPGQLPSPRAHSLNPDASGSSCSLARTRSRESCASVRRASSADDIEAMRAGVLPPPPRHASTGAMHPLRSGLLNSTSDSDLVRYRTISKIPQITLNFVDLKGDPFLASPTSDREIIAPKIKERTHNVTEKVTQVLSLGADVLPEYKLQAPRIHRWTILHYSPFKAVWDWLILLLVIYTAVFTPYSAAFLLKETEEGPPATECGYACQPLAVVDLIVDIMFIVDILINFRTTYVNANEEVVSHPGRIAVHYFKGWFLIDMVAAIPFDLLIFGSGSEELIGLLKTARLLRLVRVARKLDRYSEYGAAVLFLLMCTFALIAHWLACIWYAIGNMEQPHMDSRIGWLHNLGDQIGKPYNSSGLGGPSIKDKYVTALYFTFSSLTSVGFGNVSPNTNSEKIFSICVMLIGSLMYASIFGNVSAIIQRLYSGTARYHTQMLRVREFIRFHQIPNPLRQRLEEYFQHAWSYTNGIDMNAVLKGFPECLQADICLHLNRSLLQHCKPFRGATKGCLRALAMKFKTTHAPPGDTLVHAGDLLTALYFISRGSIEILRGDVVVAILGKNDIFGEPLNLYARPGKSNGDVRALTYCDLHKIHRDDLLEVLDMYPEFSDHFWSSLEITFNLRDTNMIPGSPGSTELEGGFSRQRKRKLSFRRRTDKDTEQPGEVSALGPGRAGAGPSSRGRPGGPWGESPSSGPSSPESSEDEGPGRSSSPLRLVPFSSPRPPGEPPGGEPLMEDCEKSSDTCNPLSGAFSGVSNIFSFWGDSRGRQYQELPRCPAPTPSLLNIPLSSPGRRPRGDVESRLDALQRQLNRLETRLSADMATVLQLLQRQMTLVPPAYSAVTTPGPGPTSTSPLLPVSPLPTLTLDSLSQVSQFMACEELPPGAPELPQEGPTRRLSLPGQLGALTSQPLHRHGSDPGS

| Structure (SMILES) | hERG current change (%, negative = inhibition) at 10uM |
| --- | --- |
| O=C(c1ccccc1)c1ccc(OCC(=O)N2CCOCC2)cc1 | 2.71% |
| CN1C(=O)C(O)(CC(=O)/C=C\c2ccc3c(c2)OCO3)c2ccccc21 (centres unmarked) | 7.56% |
| Cc1csc(CNC(=O)c2ccc(OC3CCN(CCc4ccccc4)CC3)cc2)n1 | -55.3% |
| CCN(CC)c1ccc(NC(=O)c2ccccc2F)cc1 | -9.39% |
| COc1ccccc1NC(=O)c1ccc(NC(=O)CN2C(=O)CN(C)C2=O)cc1 | 1.06% |
| O=C(O)COc1ccc(Nc2ccccc2)cc1 | 3.34% |
| N#Cc1c2ncn(CC(=O)c3ccc(Br)cc3)c(=O)c2c2n1CCC2 | -6.58% |
| CC(/C=C1\SC(=S)N(NC(=O)c2ccccc2C)C1=O)=C\c1ccccc1 | 26% |
| Cc1ccc2oc(C(=O)N3CCC(C(N)=O)(N4CCCCC4)CC3)c(C)c2c1 | -27% |
| O=C(O)CC(CNS(=O)(=O)c1cccc2nsnc12)c1ccccc1 (centres unmarked) | 11.8% |
| CN(C)C(=O)c1c(C(F)(F)F)nn(C)c1Cl | 15.2% |
| O=C(O)c1ccc2c(=O)n(-c3ccc(F)c(Cl)c3)c(=S)[nH]c2c1 | 27.5% |
| Cc1ccccc1C(=O)Oc1ccc2ccc(O)cc2c1 | 14.5% |
| CN(C1=NC(=O)C(CC(=O)O)S1)c1ccc(O)cc1 (centres unmarked) | 6.54% |
| O=C(CNC(=O)c1ccccn1)N=Nc1c(O)[nH]c2ccccc12 | 13.7% |
| CN(C)c1ccc(NC(=O)CN2CCC(NC(=O)C3CCCCC3)CC2)cc1 | 8.23% |
| O=C(Cn1c(=O)oc2ccccc21)Nc1ccccc1C(F)(F)F | 21.6% |
| O=C1Nc2ccc([N+](=O)[O-])cc2OC1CCN1CCOCC1 (centres unmarked) | 6.19% |
| COc1ccccc1/C=C(\NC(=O)c1ccc(OC)c(OC)c1)C(=O)Nc1cc([N+](=O)[O-])ccc1C | 9.68% |
| O=C(c1ccco1)N1CCN(C(=O)c2cnn(-c3ccc(Cl)cc3)c2C2CCNCC2)CC1 | 15% |
| COCCn1c(SCC(=O)NNC(=O)c2cc(Cl)ccc2OC)nnc1-c1ccncc1 | -7.79% |
| COc1ccc(C(=S)N2CCCC2)cc1Br | -7.39% |

| Structure (SMILES) | hERG current change (%, negative = inhibition) at 10uM |
| --- | --- |
| CCCOc1ccc(C(=O)Nc2ccc(C)cc2[N+](=O)[O-])cc1 | 7.82% |
| Cc1occc1C(=O)Nc1nn[nH]n1 | 10.1% |
| CCCCc1cc(=O)oc2c(CN3CCCC3)c(O)c(Cl)cc12 | -20.9% |
| CCCn1c(N)c(N(CCOC)C(=O)CSc2ccccc2)c(=O)[nH]c1=O | 13% |
| COc1cccc(CNC(=O)CCNC(=O)N2CCn3c2nc2ccccc23)c1 | -3.38% |
| CC(C)Nc1ccc(C(CC(N)=O)NC(=O)Cc2ccc(Cl)cc2)cc1[N+](=O)[O-] (centres unmarked) | -4.52% |
| CC1=C(C(=O)OC2CCCCC2)C(c2ccc(O)cc2)NC(=O)N1 (centres unmarked) | 6.09% |
| CN(c1ccc(C(=O)NCCSCc2ccccc2)cc1)S(=O)(=O)c1ccccc1 | -4.36% |
| Cc1ccc(C)c(S(=O)(=O)N2CCCOC2CNC(=O)C(=O)NCc2cccnc2)c1 (centres unmarked) | -8.34% |
| CCc1ccc(-n2c(SCc3c(C)noc3C)nnc2-c2ccncc2)cc1 | -36.6% |
| Cc1nn(C)cc1CNC(=O)c1ccccc1Br | -0.56% |
| O=C(O)c1cc(-c2ccc(Cl)s2)[nH]n1 | -6.77% |
| C=CCOc1ccc(/C=C/C(=O)OCC(=O)NCCC2=CCCCC2)cc1 | 16.9% |
| Cc1ccccc1-n1c(N)c(C(=O)Nc2ccc(F)cc2)sc1=S | 17.1% |
| Cl.O=C(CCN1CCOCC1)c1ccccc1 | 3.53% |
| CCOc1ccccc1C(=O)Nc1cnn(Cc2ccc(F)cc2)c1 | -58.8% |
| N#Cc1ccccc1Sc1ccccc1C(=O)Nc1ccccc1 | 0.339% |
| COc1ccc(CCNC(=O)C2CCN(S(=O)(=O)c3cc(OC)ccc3OC)CC2)cc1 | -3.08% |
| COCCNC(=O)C(c1cccs1)N(C(=O)Cn1nnc2ccccc21)c1ccccc1 (centres unmarked) | -5.43% |
| Cc1cccc(NC(=S)NCC(c2cccnc2)N(C)C)c1 (centres unmarked) | 9.11% |
| COc1ccccc1OCC(=O)Nc1ccc(S(=O)(=O)Nc2onc(C)c2C)cc1 | 10.5% |
| CC(=O)Nc1ccccc1-c1nc2ccc(C(=O)N3CCN(c4cccc(C)c4)C(C)C3)cc2[nH]c1=O (centres unmarked) | -17% |
